Usually inhibition stands for the change of the read-out against control, counted positive when it falls.

These results are taken from PubChem BioAssay AID2073 (Sanford-Burnham Center for Chemical Genomics, 2009).

Each structure is given as a SMILES string. Some of the results follow. These are further read-outs of the screen, such as a control signal, another cell line or another target. No call is given for them.

This assay addresses Voltage-dependent N-type calcium channel subunit alpha-1B (Homo sapiens) (UniProt Q00975). As to the kind of experiment: disruptors of CaV2.2 binding to Mint1 – biochemical, HTRF (AID 2073). The settings on record: HTRF protein-protein interaction, Mint1-CaV2.2; measured here: average of repeat tests; at 20 µM; stronger effect = higher value. A general note: In TR-FRET formats the signal depends on donor and acceptor labels being close together.
UniProt Q00975, sequence (Q00975 whole entry, looked up): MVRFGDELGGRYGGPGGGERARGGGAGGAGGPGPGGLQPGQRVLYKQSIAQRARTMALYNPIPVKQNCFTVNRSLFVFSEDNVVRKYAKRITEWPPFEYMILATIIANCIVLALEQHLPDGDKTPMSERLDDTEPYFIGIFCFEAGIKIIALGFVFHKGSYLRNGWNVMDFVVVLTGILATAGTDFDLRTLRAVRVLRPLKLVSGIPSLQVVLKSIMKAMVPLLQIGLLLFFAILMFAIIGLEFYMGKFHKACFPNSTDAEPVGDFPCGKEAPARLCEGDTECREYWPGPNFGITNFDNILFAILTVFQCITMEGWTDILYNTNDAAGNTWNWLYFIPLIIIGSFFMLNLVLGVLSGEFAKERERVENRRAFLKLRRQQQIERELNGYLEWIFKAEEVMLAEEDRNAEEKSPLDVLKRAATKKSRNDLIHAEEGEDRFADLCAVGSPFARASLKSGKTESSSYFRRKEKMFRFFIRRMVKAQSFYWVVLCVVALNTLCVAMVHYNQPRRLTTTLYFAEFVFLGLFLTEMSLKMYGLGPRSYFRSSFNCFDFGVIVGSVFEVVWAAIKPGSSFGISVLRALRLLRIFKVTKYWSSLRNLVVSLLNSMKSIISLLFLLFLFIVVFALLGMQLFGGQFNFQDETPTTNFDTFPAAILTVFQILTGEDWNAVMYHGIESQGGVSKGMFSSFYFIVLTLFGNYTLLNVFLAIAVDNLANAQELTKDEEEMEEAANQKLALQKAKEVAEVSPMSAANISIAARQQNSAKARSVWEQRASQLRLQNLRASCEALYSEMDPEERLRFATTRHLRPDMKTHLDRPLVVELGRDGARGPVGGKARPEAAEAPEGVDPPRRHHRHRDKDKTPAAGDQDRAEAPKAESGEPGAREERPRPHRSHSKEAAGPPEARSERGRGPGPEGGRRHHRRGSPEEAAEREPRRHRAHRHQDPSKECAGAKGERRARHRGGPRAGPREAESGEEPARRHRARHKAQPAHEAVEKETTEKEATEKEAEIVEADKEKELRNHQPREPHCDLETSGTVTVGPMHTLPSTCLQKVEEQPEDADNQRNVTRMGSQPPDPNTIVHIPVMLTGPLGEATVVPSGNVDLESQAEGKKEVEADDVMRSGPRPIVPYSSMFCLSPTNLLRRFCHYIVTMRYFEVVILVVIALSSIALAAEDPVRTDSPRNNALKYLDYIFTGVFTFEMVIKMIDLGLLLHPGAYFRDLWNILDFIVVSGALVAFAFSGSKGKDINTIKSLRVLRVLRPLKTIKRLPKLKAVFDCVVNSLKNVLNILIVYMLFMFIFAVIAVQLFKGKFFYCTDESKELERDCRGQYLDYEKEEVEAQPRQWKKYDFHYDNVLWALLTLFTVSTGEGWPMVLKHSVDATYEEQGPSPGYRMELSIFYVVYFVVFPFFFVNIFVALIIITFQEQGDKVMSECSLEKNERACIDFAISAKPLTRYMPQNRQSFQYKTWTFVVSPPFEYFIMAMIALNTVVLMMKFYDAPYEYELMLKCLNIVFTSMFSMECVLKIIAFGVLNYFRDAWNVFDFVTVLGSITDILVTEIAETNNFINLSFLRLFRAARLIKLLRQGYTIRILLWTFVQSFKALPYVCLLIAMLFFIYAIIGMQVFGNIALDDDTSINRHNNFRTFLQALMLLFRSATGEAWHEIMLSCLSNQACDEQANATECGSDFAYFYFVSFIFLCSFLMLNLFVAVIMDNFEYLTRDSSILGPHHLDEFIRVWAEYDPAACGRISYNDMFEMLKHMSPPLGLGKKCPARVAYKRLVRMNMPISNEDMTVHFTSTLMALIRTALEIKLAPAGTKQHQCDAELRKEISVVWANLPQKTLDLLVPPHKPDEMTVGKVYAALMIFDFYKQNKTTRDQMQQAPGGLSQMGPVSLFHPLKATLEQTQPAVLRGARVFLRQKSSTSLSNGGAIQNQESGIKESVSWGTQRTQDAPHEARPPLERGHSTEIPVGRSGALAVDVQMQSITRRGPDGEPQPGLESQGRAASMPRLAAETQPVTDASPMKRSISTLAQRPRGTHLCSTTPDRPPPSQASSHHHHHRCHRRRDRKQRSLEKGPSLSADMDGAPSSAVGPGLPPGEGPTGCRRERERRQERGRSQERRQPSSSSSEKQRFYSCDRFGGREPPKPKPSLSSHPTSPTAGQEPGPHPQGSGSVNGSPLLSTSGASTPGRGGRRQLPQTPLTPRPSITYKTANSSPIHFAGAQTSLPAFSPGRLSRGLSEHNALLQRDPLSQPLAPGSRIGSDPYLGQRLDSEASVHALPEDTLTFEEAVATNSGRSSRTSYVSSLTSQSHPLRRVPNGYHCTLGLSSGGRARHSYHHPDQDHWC
For `O=c1[nH]c(-c2ccc3c(c2)OCO3)nc2c1sc(=S)n2-c1ccccc1`, the inhibition was 66.6%.
The same measure for `CCOc1ccc(N2C(=O)CC(Sc3nnnn3-c3ccccc3)C2=O)cc1` (configuration not stated): 71.6%.
Turning to `O=C(CCN1C(=O)/C(=C/c2ccccc2Cl)SC1=S)NC1CCS(=O)(=O)C1` (configuration not stated), the inhibition turned out to be 83.7%.
Regarding `O=C1C([N+](=O)[O-])=C(O)c2cccc3cccc1c23`, the inhibition was determined as 73.1%.
As for `Cc1c(Cc2ccccc2)sc(NC(=O)c2ccco2)c1C(N)=O`, the inhibition was 56.1%.
With `COCCn1c(=NC(=O)/C=C/c2cccs2)sc2cc(NC(C)=O)ccc21` the figure was 51.4%.
The same measure for `NNc1cc([N+](=O)[O-])cc2c1C(=O)N(Cc1ccccc1)S2=O` (configuration not stated): 80.6%; for `CN(C(=O)COC(=O)c1cc(-c2ccco2)nc2ccccc12)C1CCS(=O)(=O)C1` (configuration not stated): 76.4%; for `N#C/C(=C/c1ccc(OCc2ccc(C(=O)O)cc2)c(Br)c1)c1cccc(F)c1`: 67.9%.
The same measure for `COc1ccc(NS(=O)(=O)c2cccc(C(=O)NNC(=O)c3cccn3C)c2)cc1`: 68.5%; for `NS(=O)(=O)c1ccc(NS(=O)(=O)c2ccc(NC(=O)c3ccc(-c4ccccc4)cc3)cc2)cc1`: 48.5%; for `CC(OC(=O)c1ccc(NC(=O)CC#N)cc1)C(=O)Nc1ccc(Oc2ccccc2)cc1` (configuration not stated): 63.1%.
On to `COC(=O)c1ccccc1NC(=O)c1cc(-c2ccco2)on1`, for which the inhibition was 42%.
With `Nc1ccc2nc(-c3ccc(-c4nc5ccc(N)cc5[nH]4)cc3)[nH]c2c1` the figure was 51.7%.
With `CC1=C(C(=O)O)N2C(=O)C(NC(=O)c3ccccc3Cl)C2SC1` (configuration not stated) the figure was 84.2%.
With `COc1cccc2cc(C(=O)Nc3ccc(S(=O)(=O)NCC4CCCO4)cc3)c(=O)oc12` (configuration not stated) the figure was 53.1%; with `O=C(O)CCCNC(=O)/C=C/c1ccco1`, 77.2%.
For `CCCc1cc(=O)oc2cc(OCC(=O)Nc3ccc(S(N)(=O)=O)cc3)ccc12`, the inhibition came to 76%.
The same measure for `N#CC1=C(N)NC(=S)C(C(N)=O)C1c1ccc(Cl)cc1Cl` (configuration not stated): 79%.
The same measure for `O=C(O)c1ccc(Nc2nc(-c3cc4ccccc4oc3=O)cs2)cc1O`: 79.3%.
With `COc1ccc(-c2cc3c(=O)n(CC(=O)Nc4ccc(C(C)=O)cc4)ncn3n2)cc1` the figure was 61.3%; with `Cc1cc2oc(C(=O)Nc3ccc(S(N)(=O)=O)cc3)c(C)c2cc1Cl`, 38.2%; with `Cc1cc(C)c2c(=O)n(CC(=O)Nc3cccc(Cl)c3C)sc2n1`, 81.4%.
Regarding `N#Cc1c(Nc2ccccc2C(F)(F)F)s[nH]c1=O`, the inhibition amounted to 68%.
With `CCOC(=O)c1sc2nc(-c3ccco3)c3c(c2c1N)CC(C)(C)OC3` the figure was 53.3%.
With `COc1ccc2cc3c(N)nn(C(=O)c4cccc([N+](=O)[O-])c4)c3nc2c1` the figure was 47.8%; with `CCc1ccc2nc(NC(=O)c3ccc4c(=O)[nH]c(CN5CCOCC5)nc4c3)sc2c1`, 54.1%.
With `Nc1ccc2nc(-c3ccc(N)c(Cl)c3)[nH]c2c1` the figure was 66.1%; with `Cc1cccc(NC(=S)NC2CCCC2)n1`, 72.4%.
In the case of `O=C(O)c1ccc(N2C(=O)/C(=C/c3ccc(-c4ccc([N+](=O)[O-])cc4)o3)C=C2c2ccccc2)cc1`, the inhibition came out at 90.8%.
With `C=C(C)C(=O)Nc1cccc(C2=NOC3(C2)C[C@@H](C(N)=O)N(C(=O)/C(C)=C/C)C3)c1` (some centres not stated) the figure was 73.9%.
The same measure for `CC(C)n1cc(/C=N/Nc2ccc(Cl)c(C(=O)O)c2)c2ccccc21`: 82.9%; for `CC(=O)c1cccc(NC(=O)c2cc(-c3ccc(C)cc3)on2)c1`: 51.7%.
The same measure for `COc1ccc(N2CSC3=C(C#N)C(c4cccs4)CC(=O)N3C2)cc1` (configuration not stated): 60.8%; for `O=C(Nc1ccc(F)cc1)C1=CC(=O)N2CCN=C2S1`: 66.8%.
`COc1ccc2ccccc2c1C1CC(=O)N2CN(C3CCCCC3)CSC2=C1C#N` (configuration not stated): the inhibition amounted to 47.6%.
With `CCOc1cc(/C=C(/C#N)C(=O)Nc2ccc(OC)cc2)ccc1OCc1ccc(C(=O)O)cc1` the figure was 69.9%; with `Cc1cc(C)c2c(=O)n(CC(=O)Nc3ccc(Br)c(C)c3)sc2n1`, 81.2%; with `CC1=C(C(=O)O)N2C(=O)C(NC(=O)c3nn(C)c(C)c3Cl)C2SC1` (configuration not stated), 85.1%.
The same measure for `CC1(C)N([O-])c2cc([N+](=O)[O-])ccc2[N+]1=O`: 93.4%.
The same measure for `CC(=O)N(C1=C(Cl)C(=O)c2ccccc2C1=O)C1CCCCC1`: 85.7%.
In the case of `Cn1sc(=O)c2cc(S(=O)(=O)NC3CC3)ccc21`, the inhibition was found to be 60.9%.
With `O=C(Nc1c[nH]c(=O)[nH]c1=O)c1ccc2c(c1)C(=O)N(c1cccc([N+](=O)[O-])c1)C2=O` the figure was 76.3%.
For the compound `Cc1cc(C)c2c(=O)n(CC(=O)N3CCC(N4CCCCC4)CC3)sc2n1`, the inhibition was found to be 92.8%.
With `O=C1c2ccccc2-c2onc3ccc(NCCCn4ccnc4)c1c23`, the inhibition turned out to be 62.7%.
In the case of `COc1ccc(CC(=O)n2[nH]c(=O)ccc2=O)cc1OC`, the inhibition came to 63.7%.
The same measure for `COC/C=C/C1=CC2=CC(=O)C(C)(OC(=O)CCC(=O)OC)C(=O)C2=CO1` (configuration not stated): 61.2%.
The same measure for `CC(=O)Oc1ccc(-c2ccc(C(=O)NCCc3ccc(S(N)(=O)=O)cc3)cc2)cc1`: 59.9%.
Take `COc1ccccc1NS(=O)(=O)c1cc(NC(=O)c2ccncc2)ccc1N1CCCC1`: the inhibition amounted to 41.7%.
With `COc1cc(NC(=O)c2ccccc2F)ccc1NC(=O)c1cc2ccccc2o1` the figure was 47.9%; with `CCc1ccc(N2CSC3=C(C#N)C(c4cccs4)CC(=O)N3C2)cc1` (configuration not stated), 50.3%.
With `CC(=O)N(C1=C(Cl)C(=O)c2ccccc2C1=O)c1ccc(C(=O)O)cc1` the figure was 88.9%; with `Cc1ccc(N=c2ssnc2Cl)cc1`, 75.8%; with `Cc1c2c(=O)n(-c3nc4ccccc4s3)nc-2cc(O)n1Cc1ccccc1`, 48.9%.
The same measure for `Cc1ccn2c(-c3csc(NCc4ccco4)n3)c(C)nc2c1`: 46.9%; for `Cc1c(C(=O)OCC2CCCO2)[nH]c2c1C(=O)CC(c1ccco1)C2` (configuration not stated): 53.7%; for `NC1=CC(=O)c2cccc3cccc1c23`: 68.7%.
As for `N#Cc1nc(-c2ccc(OCc3ccc(Cl)cc3)cc2)oc1N1CCC(C(N)=O)CC1`, the inhibition was 50.7%.
For `COc1ccc(OC)c2c1C(=O)C(Cl)=C(Cl)C2=O`, the inhibition turned out to be 80.8%.
The same measure for `O=[N+]([O-])c1ccc(-c2cc(-c3ccc(Cl)cc3)n[nH]2)cc1`: 65.3%.
The same measure for `CCOC(=O)c1cc(-c2ccc(N3CCOCC3)cc2)nn1-c1ccccc1C(=O)O`: 79.1%; for `Cc1cc(=O)oc2cc(NC(=O)c3cccc(Br)c3)ccc12`: 31.1%.
With `COC(=O)/C=C\C(=O)Nc1cccc([N+](=O)[O-])c1` the figure was 44.9%.
As to `COc1cc(NC(=O)c2ccc(F)cc2)ccc1NC(=O)c1cc2ccccc2o1`, the inhibition was 55.2%.
Turning to `CC(=O)NS(=O)(=O)c1ccc(NC(=O)/C=C/c2ccc(C)o2)cc1`, the inhibition is 68%.
The same measure for `O=C1C2C(C(=O)N1/N=C/c1ccc(N3CCCCC3)o1)C1C=CC2C12CC2` (configuration not stated): 41.8%; for `COc1ccc(NC(=O)c2cc3c(=O)n(C)c4ccccc4c3s2)cc1OC`: 53.3%.
`O=C(NCCO)c1cc(-c2cc(C(=O)NCCO)c3ccccc3n2)nc2ccccc12`: the inhibition worked out at 53.6%.
`COc1cc(/C=C2\SC(=O)N(CC(=O)Nc3ccc(C)cc3)C2=O)cc(Cl)c1OCC(=O)O`: the inhibition worked out at 71.5%.
`O=C(N/N=C/c1coc2ccccc2c1=O)c1cc(O)cc(O)c1`: the inhibition is 41.2%.
The same measure for `Cc1ccc2oc(-c3cc(NC(=O)c4ncn[nH]4)ccc3O)nc2c1`: 63.3%; for `Cc1c(N=Nc2c(-c3ccc([N+](=O)[O-])cc3)[nH]n(C(N)=S)c2=O)cccc1[N+](=O)[O-]`: 50.8%; for `C=Cc1ccc(C(=O)N2CCCC(CCC(=O)N3CCN(c4ccccn4)CC3)C2)cc1` (configuration not stated): 47.3%.
The same measure for `O=c1[nH]sc2ccccc12`: 70.2%; for `NS(=O)(=O)c1ccc(-c2ccc(C=C3C(=O)c4ccccc4C3=O)o2)cc1`: 57.6%.
The same measure for `CN1CSC2=C(C#N)C(c3cccc(OCc4ccccc4)c3)CC(=O)N2C1` (configuration not stated): 48.3%; for `N#CC1=C2SCN(c3ccc(F)cc3)CN2C(=O)CC1c1cccc(F)c1` (configuration not stated): 48.5%.
Consider `CCOC(=O)c1ccc(N=c2ssnc2Cl)cc1`, for which the inhibition was 66.2%.
The same measure for `COc1ccc(C2CC(c3ccccc3)=NN2c2ccc(Cl)c(C(=O)O)c2)cc1` (configuration not stated): 50.9%; for `CCN(CC)C(=O)COC(=O)c1cc(-c2ccco2)nc2ccccc12`: 48.3%.
The same measure for `COCc1c(N)c(C)nc(Cl)c1C#N`: 61%; for `COc1ccc2nc(NC(=O)/C=C/c3ccc4c(c3)OCO4)sc2c1`: 42.6%.
The same measure for `O=C(CN1C(=O)/C(=C2\SC(=S)N(CCS(=O)(=O)O)C2=O)c2ccccc21)Nc1cccc(Br)c1`: 69.4%; for `CSc1nc(SCCO)c2sc3nc(-c4ccco4)c4c(c3c2n1)CC(C)(C)OC4`: 48.3%.
Take `O=C(O)CCN1C(=O)/C(=C2\C(=O)N(Cc3ccccc3Cl)c3ccccc32)SC1=S`: the inhibition came out at 87.5%.
The same measure for `Cc1cc(C)c2c(=O)c(/C=C3\NC(=S)NC3=O)coc2c1`: 52.7%.
With `O=C(NCc1ccco1)c1ccc([N+](=O)[O-])o1` the figure was 49.8%; with `COCCn1c(SCC(=O)Nc2ccc(F)cc2)nc2c([nH]c3ccccc32)c1=O`, 53.3%.
With `CCOC(=O)C1CCCN(C(=O)Cn2sc3nc(C)cc(C)c3c2=O)C1` (configuration not stated) the figure was 88.8%.
In the case of `O=c1[nH]c2ccccc2c(O)c1O`, the inhibition stood at 96.9%.
For `Cc1ccc(NC(=O)CN2C(=O)N/C(=C/c3cccn3-c3ccc(C(=O)O)cc3)C2=O)cc1`, the inhibition was 73.6%.
The same measure for `Nc1ccc(-c2nc3c(Cl)c(N)ccc3[nH]2)cc1`: 66.2%; for `COc1ccc(NC(=O)c2cc(-c3ccco3)nc3ccccc23)cc1S(=O)(=O)N1CCOCC1`: 50.5%; for `Cc1ccc(-n2cccc2/C=C2\C(=N)N3N=C(c4ccco4)SC3=NC2=O)cc1`: 59.6%.
Take `O=C1c2c([N+](=O)[O-])cc([N+](=O)[O-])cc2S(=O)N1Cc1ccccc1` (configuration not stated): the inhibition worked out at 53.3%.
The same measure for `COc1cc(OC)c(C2CC(=O)N3CN(c4ccccc4)CSC3=C2C#N)cc1OC` (configuration not stated): 35.2%; for `CCNC(=O)COC(=O)c1cc(-c2ccco2)nc2ccccc12`: 56.9%; for `Cc1ccc(/C=C/C(=O)NCc2ccc(S(N)(=O)=O)cc2)o1`: 52.1%.
The same measure for `COc1ccc(NC(=O)CN2C(=O)/C(=C3\SC(=S)N(CCC(=O)O)C3=O)c3ccccc32)cc1`: 68.2%.
The same measure for `CCOC(=O)c1ccc(N2C(=O)C=CC2=O)cc1`: 68.8%; for `Cc1cc(C)c2c(=O)n(CC(=O)NCCCN3CCN(c4ccccc4F)CC3)sc2n1`: 90.8%; for `COc1ccc(CC(=O)Nc2ccc(-c3nnc(-c4ccccc4)o3)cc2)cc1`: 58.7%.
